Test results published in the supplement of paper PMC9135407.
“And” between values parts separate entries of the source, which are not always exact repeats. Identical values can stand only once. Counter-ions that a name gives are not always drawn. About 620 (11%) of roughly 5,800 compounds showed activity.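 Rule for the calls: active = score above a cut-off or among the top three wells of a plate; in these data no inactive exceeds 0.85.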 The list shows a part of the results, in another mix than the full data.

Test system: primary human hepatic stellate cells (donor 1)
Assay: scaled lipid accumulation score (0 = DMSO-like, 1 = nortriptyline-like); higher = stronger HSC inactivation (lipid re-accumulation), active = hit call of the paper
Details: 48 h
[1] = library stock concentration: 10 mM
[2] = library stock concentration: 3.33 mM
[3] = library stock concentration: 80 uM
[4] = library stock concentration: 400 uM
[5] = library stock concentration: 2 mM
[6] = library stock concentration: 5.8 mM

Structure (SMILES): Cc1cc2cc3c(C)cc(=O)oc3c(C)c2o1 [Trioxsalen]
- scaled lipid accumulation score: inactive: ≤ 0
- scaled lipid accumulation score (library stock concentration: 8.8 mM): inactive: ≤ 0
- scaled lipid accumulation score [1]: inactive: ≤ 0

Structure (SMILES): CCCCOc1ccc(C(=O)Nc2ccc(F)cc2F)cc1
- scaled lipid accumulation score [2]: inactive: 0.241
- scaled lipid accumulation score [1]: inactive: 0.22

Structure (SMILES): Nc1nc(OCc2cc(Br)cs2)c2[nH]cnc2n1 [Lomeguatrib]
- scaled lipid accumulation score [2]: inactive: ≤ -0.009
- scaled lipid accumulation score [1]: inactive: 0.04

Structure (SMILES): CC(=O)Nc1nnc(S(N)(=O)=O)s1
- scaled lipid accumulation score [1]: inactive: ≤ 0

Structure (SMILES): CC(=O)Nc1nnc(S(N)(=O)=O)s1 [Acetazolamide]
- scaled lipid accumulation score: inactive: ≤ 0
- scaled lipid accumulation score (library stock concentration: 9 mM): inactive: 0.014
- scaled lipid accumulation score [1]: inactive: ≤ 0

Structure (SMILES): NC1(Cc2ccc(Cl)cc2)CCN(c2ncnc3[nH]ccc23)CC1
- scaled lipid accumulation score [2]: inactive: 0.47

Structure (SMILES): O=C(O)CCC(C(=O)O)N1C(=O)c2ccccc2C1=O [L-Glutamic acid, N-phthaloyl-]
- scaled lipid accumulation score [1]: inactive: 0.174

Structure (SMILES): C[C@]12CC[C@@H]3c4ccc(O)cc4C[C@@H](CCCCCCCCC[S+]([O-])CCCC(F)(F)C(F)(F)F)[C@H]3[C@@H]1CC[C@@H]2O (stereo not given in full) [Fulvestrant]
- scaled lipid accumulation score [2]: inactive: ≤ 0
- scaled lipid accumulation score [1]: inactive: ≤ 0 and inactive: 0.194

Structure (SMILES): C[C@]12CC[C@@H]3c4ccc(O)cc4C[C@@H](CCCCCCCCC[S+]([O-])CCCC(F)(F)C(F)(F)F)[C@H]3[C@@H]1CC[C@@H]2O (stereo not given in full)
- scaled lipid accumulation score [1]: inactive: ≤ -0.006

Structure (SMILES): O=C(O)[C@@H]1[C@H]2C[C@H]3c4[nH]c5ccccc5c4CCN3C[C@@H]2CC[C@@H]1O [Yohimbinic acid monohydrate]
- scaled lipid accumulation score: inactive: ≤ 0

Structure (SMILES): Clc1ccc(C2(c3ccc(-c4cn[nH]c4)cc3)CCNCC2)cc1
- scaled lipid accumulation score [3]: inactive: 0.375
- scaled lipid accumulation score [4]: inactive: 0.622
- scaled lipid accumulation score [1]: inactive: 0.425

Structure (SMILES): CO/N=C(\C(=O)N[C@@H]1C(=O)N2C(C(=O)O)=C(COC(C)=O)CS[C@H]12)c1csc(N)n1 [Cefotaxime acid]
- scaled lipid accumulation score (library stock concentration: 4.4 mM): inactive: ≤ 0

Structure (SMILES): CO/N=C(\C(=O)N[C@@H]1C(=O)N2C(C(=O)O)=C(COC(C)=O)CS[C@H]12)c1csc(N)n1 [Cefotaxime sodium salt]
- scaled lipid accumulation score: inactive: ≤ 0

Structure (SMILES): CO/N=C(\C(=O)N[C@@H]1C(=O)N2C(C(=O)O)=C(COC(C)=O)CS[C@H]12)c1csc(N)n1 [Cefotaxime sodium]
- scaled lipid accumulation score [1]: inactive: ≤ 0 and inactive: 0.141

Structure (SMILES): CO/N=C(\C(=O)N[C@@H]1C(=O)N2C(C(=O)O)=C(COC(C)=O)CS[C@H]12)c1csc(N)n1
- scaled lipid accumulation score [1]: inactive: ≤ 0

Structure (SMILES): CCCCc1oc2ccccc2c1C(=O)c1cc(I)c(OCCN(CC)CC)c(I)c1.Cl [Amiodarone hydrochloride]
- scaled lipid accumulation score [1]: active: 1.04

Structure (SMILES): COC1CCC(C(=O)c2ccc3nc4c(cc3c2)CCCO4)CC1 (stereo not given)
- scaled lipid accumulation score [1]: inactive: ≤ -0.001

Structure (SMILES): C=C[C@](C)(O)CC[C@@H]1[C@@]2(C)CCCC(C)(C)[C@@H]2CC[C@@]1(C)O [Sclareol]
- scaled lipid accumulation score [2]: inactive: ≤ 0
- scaled lipid accumulation score [1]: inactive: 0.568

Structure (SMILES): C=C1O[C@@](CO)(n2cnc3c(N)ncnc32)[C@H](O)[C@@H]1O [Decoyinine]
- scaled lipid accumulation score (library stock concentration: 17.9 mM): inactive: ≤ -0.012

Structure (SMILES): NC(=O)C1CCCc2c1[nH]c1ccc(Cl)cc21 (stereo not given) [EX 527 (Selisistat)]
- scaled lipid accumulation score [2]: inactive: ≤ 0
- scaled lipid accumulation score [1]: inactive: 0.039

Structure (SMILES): NC(=O)C1CCCc2c1[nH]c1ccc(Cl)cc21 (stereo not given)
- scaled lipid accumulation score [3]: inactive: ≤ 0
- scaled lipid accumulation score [4]: inactive: ≤ 0
- scaled lipid accumulation score [5]: inactive: ≤ 0
- scaled lipid accumulation score [1]: inactive: ≤ 0

Structure (SMILES): O=C(/C=C/c1ccc(O)c(O)c1)O[C@H](Cc1ccc(O)c(O)c1)C(=O)O [Rosmarinic Acid]
- scaled lipid accumulation score (library stock concentration: 1 mM): inactive: 0.002

Structure (SMILES): O=C(/C=C/c1ccc(O)c(O)c1)O[C@H](Cc1ccc(O)c(O)c1)C(=O)O [Rosmarinic acid]
- scaled lipid accumulation score [1]: inactive: ≤ 0 and inactive: 0.014

Structure (SMILES): C1CCC(N=C(NC23CC4CC(CC(C4)C2)C3)N2CCOCC2)CC1
- scaled lipid accumulation score [1]: inactive: 0.228

Structure (SMILES): CCS(=O)(=O)c1cccc(-c2cc(C(=O)NC3CCN(C)CC3)c(C)c3[nH]c4ncc(C)cc4c23)c1
- scaled lipid accumulation score [2]: inactive: 0.629
- scaled lipid accumulation score [1]: inactive: 0.649

Structure (SMILES): NC1CCN(O)C1=O (stereo not given)
- scaled lipid accumulation score [1]: inactive: ≤ 0

Structure (SMILES): COC(=O)[C@H](Cc1ccccc1)NC(=O)[C@@H](N)CC(=O)O [Aspartame]
- scaled lipid accumulation score [2]: inactive: ≤ 0
- scaled lipid accumulation score (library stock concentration: 6.8 mM): inactive: ≤ 0
- scaled lipid accumulation score [1]: inactive: ≤ 0 and inactive: ≤ -0.027

Structure (SMILES): C[C@@H]1CCC[C@H](C)N1NC(=O)c1ccc(Cl)c(S(N)(=O)=O)c1 [Clopamide]
- scaled lipid accumulation score: inactive: 0.076
- scaled lipid accumulation score [6]: inactive: ≤ -0.006 and inactive: ≤ 0

Structure (SMILES): CCn1c(N)c(C(=O)NC)c(=O)c2ccc(C#CC(C)(O)COC)nc21 (stereo not given)
- scaled lipid accumulation score [2]: inactive: 0.015
- scaled lipid accumulation score [1]: inactive: 0.157

Structure (SMILES): CCOC(=O)C1=C(C)NC(=S)NC1c1cccc(O)c1 (stereo not given) [Monastrol]
- scaled lipid accumulation score [1]: inactive: ≤ -0.006
- scaled lipid accumulation score (library stock concentration: 17.1 mM): inactive: 0.086

Structure (SMILES): CC[C@H]1OC(=O)[C@H](C)[C@@H](O[C@H]2C[C@@](C)(OC)[C@@H](O)[C@H](C)O2)[C@H](C)[C@@H](O[C@@H]2O[C@H](C)C[C@H](N(C)C)[C@H]2O)[C@](C)(O)C[C@@H](C)CN(C)[C@H](C)[C@@H](O)[C@]1(C)O [Azithromycin]
- scaled lipid accumulation score [2]: inactive: 0.261
- scaled lipid accumulation score [1]: inactive: 0.672 and inactive: 0.411 and inactive: 0.753

Structure (SMILES): CC[C@H]1OC(=O)[C@H](C)[C@@H](O[C@H]2C[C@@](C)(OC)[C@@H](O)[C@H](C)O2)[C@H](C)[C@@H](O[C@@H]2O[C@H](C)C[C@H](N(C)C)[C@H]2O)[C@](C)(O)C[C@@H](C)CN(C)[C@H](C)[C@@H](O)[C@]1(C)O [Azithromycin dihydrate]
- scaled lipid accumulation score [1]: inactive: 0.846

Structure (SMILES): OCCn1cc(-c2ccc3c(c2)CC/C3=N\O)c(-c2ccncc2)n1
- scaled lipid accumulation score [3]: inactive: 0.006
- scaled lipid accumulation score [4]: inactive: 0.086
- scaled lipid accumulation score [5]: inactive: ≤ -0.009
- scaled lipid accumulation score [2]: inactive: 0.041
- scaled lipid accumulation score [1]: inactive: ≤ 0 and inactive: ≤ -0.009

Structure (SMILES): CCC(C)(C)N=C(NC#N)Nc1cccnc1
- scaled lipid accumulation score (library stock concentration: 9.9 mM): inactive: ≤ 0

Structure (SMILES): CCOC(=O)C(Cc1ccc(O)cc1)NC(C)=O (stereo not given) [Acetyl tyrosine ethyl ester]
- scaled lipid accumulation score [1]: inactive: ≤ 0

Structure (SMILES): CN[C@H]1CC[C@@H](c2ccc(Cl)c(Cl)c2)c2ccccc21 [Sertraline]
- scaled lipid accumulation score [1]: inactive: 0.147 and inactive: 0.63

Structure (SMILES): CN[C@H]1CC[C@@H](c2ccc(Cl)c(Cl)c2)c2ccccc21 [Sertraline hydrochloride]
- scaled lipid accumulation score [6]: inactive: 0.777
- scaled lipid accumulation score [1]: inactive: ≤ -0.055 and inactive: 0.281 and inactive: 0.318

Structure (SMILES): CN[C@H]1CC[C@@H](c2ccc(Cl)c(Cl)c2)c2ccccc21 [Sertraline HCl]
- scaled lipid accumulation score [2]: inactive: 0.103
- scaled lipid accumulation score [1]: inactive: 0.033
